# This is one part of the list.
# B1: OrysaEULS2 (Oryza sativa) (protein)
# chain: MVYCRANPNYAMTARNGAVVLAPANPKDEYQHWIKDMRWSTSIKDEEGYPAFALVNKATGQAIKHSLGQSHPVRLVPYNPEVMDESVLWTESRDVGNGFRCIRMVNNIYLNFDAFHGDKYHGGVRDGTDIVLWKWCEGDNQRWKIQPYYILEQKLISEEDLNSAVDHHHHHH
# Tests used:
# Experiment in all cases: glycan array binding signal (z-score within array); higher = stronger binding
# Conditions in all cases: glycan notation: IUPAC condensed, linker removed
# [1] = target: Fuc(a1-2)[GalNAc(a1-3)]Gal(b1-4)GlcNAc(b1-3)GalNAc
# Procedure, shortened: (§1)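 Columns mapping to the same glycan were averaged after glycan names were converted to IUPAC-condensed notation. The data come from 3228 arrays in the Consortium for Functional Glycomics database, limited to those with an available protein sequence. Binding is reported as a within-array Z-score averaged across arrays of one protein sequence and across linkers.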
# [2] = target: Fuc(a1-2)[GalNAc(a1-3)]Gal(b1-4)GlcNAc(b1-3)[Fuc(a1-2)[GalNAc(a1-3)]Gal(b1-4)GlcNAc(b1-6)]GalNAc
# Procedure, shortened: as §1
# [3] = target: Fuc(a1-2)[GalNAc(a1-3)]Gal(b1-4)GlcNAc(b1-6)GalNAc
# Procedure, shortened: as §1
# [4] = target: Fuc(a1-2)[GalNAc(a1-3)]Gal(b1-4)[Fuc(a1-3)]GlcNAc
# Procedure, shortened: as §1
# [5] = target: Fuc(a1-2)[GalNAc(a1-3)]Gal(b1-4)[Fuc(a1-3)]GlcNAc(b1-3)GalNAc
# Procedure, shortened: as §1
# [6] = target: Fuc(a1-2)[GalNAc(a1-4)]Gal(b1-4)GlcNAc
# Procedure, shortened: as §1
# [7] = target: Fuc(a1-2)[GalNAc(b1-3)]Gal
# Procedure, shortened: as §1
# Fuc(a1-3)GlcNAc = target: Fuc(a1-3)GlcNAc
# Procedure, shortened: as §1
# [8] = target: Fuc(a1-3)[Gal(b1-4)]Glc6S
# Procedure, shortened: as §1
# [9] = target: Fuc(a1-3)[Gal(b1-4)]GlcNAc
# Procedure, shortened: as §1
# [10] = target: Fuc(a1-3)[Gal(b1-4)]GlcNAc(b1-2)Man
# Procedure, shortened: as §1
# [11] = target: Fuc(a1-3)[Gal(b1-4)]GlcNAc(b1-2)Man(a1-3)[Fuc(a1-3)[Gal(b1-4)]GlcNAc(b1-2)Man(a1-6)]Man(b1-4)GlcNAc(b1-4)GlcNAc
# Procedure, shortened: as §1
# [12] = target: Fuc(a1-3)[Gal(b1-4)]GlcNAc(b1-2)Man(a1-3)[Fuc(a1-3)[Gal(b1-4)]GlcNAc(b1-2)Man(a1-6)]Man(b1-4)GlcNAc(b1-4)[Fuc(a1-6)]GlcNAc
# Procedure, shortened: as §1
# [13] = target: Fuc(a1-3)[Gal(b1-4)]GlcNAc(b1-3)Gal(b1-3)[Fuc(a1-4)]GlcNAc
# Procedure, shortened: as §1
# [14] = target: Fuc(a1-3)[Gal(b1-4)]GlcNAc(b1-3)Gal(b1-4)[Fuc(a1-3)]GlcNAc
# Procedure, shortened: as §1
# [15] = target: Fuc(a1-3)[Gal(b1-4)]GlcNAc(b1-3)Gal(b1-4)[Fuc(a1-3)]GlcNAc(b1-3)Gal(b1-4)[Fuc(a1-3)]GlcNAc
# Procedure, shortened: as §1
# [16] = target: Fuc(a1-3)[Gal(b1-4)]GlcNAc(b1-3)GalNAc
# Procedure, shortened: as §1
# [17] = target: Fuc(a1-3)[Gal(b1-4)]GlcNAc(b1-4)Gal(b1-4)[Fuc(a1-3)]GlcNAc
# Procedure, shortened: as §1
# [18] = target: Fuc(a1-3)[Gal(b1-4)]GlcNAc(b1-4)Gal(b1-4)[Fuc(a1-3)]GlcNAc(b1-4)Gal(b1-4)[Fuc(a1-3)]GlcNAc
# Procedure, shortened: as §1
# [19] = target: Fuc(a1-3)[Gal(b1-4)]GlcNAc(b1-6)GalNAc
# Procedure, shortened: as §1
# [20] = target: Fuc(a1-3)[Gal(b1-4)]GlcNAc(b1-6)[Gal(b1-3)GlcNAc(b1-3)]Gal(b1-4)Glc
# Procedure, shortened: as §1
# [21] = target: Fuc(a1-3)[Gal(b1-4)]GlcNAc(b1-6)[Neu5Ac(a2-3)Gal(b1-3)]GalNAc
# Procedure, shortened: as §1
# [22] = target: Fuc(a1-3)[Gal(b1-4)]GlcNAc6S
# Procedure, shortened: as §1
# [23] = target: Fuc(a1-3)[Gal3S(b1-4)]Glc
# Procedure, shortened: as §1
# [24] = target: Fuc(a1-3)[Gal3S(b1-4)]GlcNAc
# Procedure, shortened: as §1
# [25] = target: Fuc(a1-3)[Gal3S(b1-4)]GlcNAc6S
# Procedure, shortened: as §1
# [26] = target: Fuc(a1-3)[GalNAc(b1-4)]GlcNAc
# Procedure, shortened: as §1
# [27] = target: Fuc(a1-3)[GalNAc(b1-4)]GlcNAc6S
# Procedure, shortened: as §1
# [28] = target: Fuc(a1-3)[GalNAc3S(b1-4)]GlcNAc
# Procedure, shortened: as §1
# Fuc(a1-4)GlcNAc = target: Fuc(a1-4)GlcNAc
# Procedure, shortened: as §1
# Fuc(b1-3)GlcNAc = target: Fuc(b1-3)GlcNAc
# Procedure, shortened: as §1
# Gal(a1-2)Gal = target: Gal(a1-2)Gal
# Procedure, shortened: as §1
# Gal(a1-3)Gal = target: Gal(a1-3)Gal
# Procedure, shortened: as §1
# Gal(a1-3)Gal(b1-3)GlcNAc = target: Gal(a1-3)Gal(b1-3)GlcNAc
# Procedure, shortened: as §1
# [29] = target: Gal(a1-3)Gal(b1-3)GlcNAc(b1-2)Man
# Procedure, shortened: as §1
# [30] = target: Gal(a1-3)Gal(b1-3)GlcNAc(b1-2)Man(a1-3)[Gal(a1-3)Gal(b1-3)GlcNAc(b1-2)Man(a1-6)]Man(b1-4)GlcNAc(b1-4)GlcNAc
# Procedure, shortened: as §1
# [31] = target: Gal(a1-3)Gal(b1-3)GlcNAc(b1-3)GalNAc
# Procedure, shortened: as §1
# [32] = target: Gal(a1-3)Gal(b1-3)GlcNAc(b1-6)GalNAc
# Procedure, shortened: as §1
# [33] = target: Gal(a1-3)Gal(b1-3)[Fuc(a1-4)]GlcNAc(b1-2)Man(a1-3)[Gal(a1-3)Gal(b1-3)[Fuc(a1-4)]GlcNAc(b1-2)Man(a1-6)]Man(b1-4)GlcNAc(b1-4)GlcNAc
# Procedure, shortened: as §1
# Gal(a1-3)Gal(b1-4)Glc = target: Gal(a1-3)Gal(b1-4)Glc
# Procedure, shortened: as §1
# Gal(a1-3)Gal(b1-4)GlcNAc = target: Gal(a1-3)Gal(b1-4)GlcNAc
# Procedure, shortened: as §1
# [34] = target: Gal(a1-3)Gal(b1-4)GlcNAc(b1-2)Man
# Procedure, shortened: as §1
# [35] = target: Gal(a1-3)Gal(b1-4)GlcNAc(b1-2)Man(a1-3)[Gal(a1-3)Gal(b1-4)GlcNAc(b1-2)Man(a1-6)]Man(b1-4)GlcNAc(b1-4)GlcNAc
# Procedure, shortened: as §1
# [36] = target: Gal(a1-3)Gal(b1-4)GlcNAc(b1-3)GalNAc
# Procedure, shortened: as §1
# [37] = target: Gal(a1-3)Gal(b1-4)GlcNAc(b1-6)GalNAc
# Procedure, shortened: as §1
binder,measurement,setting,value
B1,glycan array binding signal (z-score),[1],-0.187
same,glycan array binding signal (z-score),[2],-0.194
same,glycan array binding signal (z-score),[3],-0.284
same,glycan array binding signal (z-score),[4],-0.197
same,glycan array binding signal (z-score),[5],-0.07
same,glycan array binding signal (z-score),[6],-0.189
same,glycan array binding signal (z-score),[7],-0.184
same,glycan array binding signal (z-score),Fuc(a1-3)GlcNAc,-0.154
same,glycan array binding signal (z-score),[8],-0.177
same,glycan array binding signal (z-score),[9],-0.192
same,glycan array binding signal (z-score),[10],-0.192
same,glycan array binding signal (z-score),[11],0.251
same,glycan array binding signal (z-score),[12],-0.176
same,glycan array binding signal (z-score),[13],-0.21
same,glycan array binding signal (z-score),[14],-0.27
same,glycan array binding signal (z-score),[15],-0.24
same,glycan array binding signal (z-score),[16],-0.194
same,glycan array binding signal (z-score),[17],-0.174
same,glycan array binding signal (z-score),[18],-0.163
same,glycan array binding signal (z-score),[19],-0.16
same,glycan array binding signal (z-score),[20],-0.183
same,glycan array binding signal (z-score),[21],-0.16
same,glycan array binding signal (z-score),[22],-0.167
same,glycan array binding signal (z-score),[23],-0.277
same,glycan array binding signal (z-score),[24],-0.194
same,glycan array binding signal (z-score),[25],-0.186
same,glycan array binding signal (z-score),[26],-0.162
same,glycan array binding signal (z-score),[27],-0.208
same,glycan array binding signal (z-score),[28],-0.163
same,glycan array binding signal (z-score),Fuc(a1-4)GlcNAc,-0.208
same,glycan array binding signal (z-score),Fuc(b1-3)GlcNAc,-0.201
same,glycan array binding signal (z-score),Gal(a1-2)Gal,-0.168
same,glycan array binding signal (z-score),Gal(a1-3)Gal,-0.137
same,glycan array binding signal (z-score),Gal(a1-3)Gal(b1-3)GlcNAc,-0.039
same,glycan array binding signal (z-score),[29],-0.28
same,glycan array binding signal (z-score),[30],0.432
same,glycan array binding signal (z-score),[31],-0.176
same,glycan array binding signal (z-score),[32],-0.212
same,glycan array binding signal (z-score),[33],0.2
same,glycan array binding signal (z-score),Gal(a1-3)Gal(b1-4)Glc,-0.204
same,glycan array binding signal (z-score),Gal(a1-3)Gal(b1-4)GlcNAc,-0.19
same,glycan array binding signal (z-score),[34],-0.269
same,glycan array binding signal (z-score),[35],1.29
same,glycan array binding signal (z-score),[36],-0.213
same,glycan array binding signal (z-score),[37],-0.208

# Reference: the supplement of paper PMC8728848
